Assay results published in the supplement of paper PMC10126150.
Sequences with one replicate were seen in a single cluster, so their values are uncertain.

tested on: ATP; experiment: switch fluorescence ratio, 500 uM ATP over buffer (Cy3 cluster intensity, sum of 5 cycles each) (fold (ratio)); higher = stronger signal-on switching upon ATP binding; sequences stand for … in TCGTCGGCAGCGTCAGATGTGTATAAGAGACAGTTTTTTTTTTTTTTTTTTTTTTTTT…TC; conditions: aptamer strand: ATP DNA aptamer (quencher-CACCTGGGGGAGTATTGCGGAGGAAGG + anchor), 100 nM annealed; ATP concentration: 500 uM; one replicate
How it was run: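 For every switch-domain sequence, the fluorescence ratio is the mean of per-cluster values, each being summed target-cycle Cy3 intensity over summed buffer-cycle Cy3 intensity. Clusters outside 100-1000 RFU were excluded. On a modified Illumina MiSeq flow-cell, the Cy3-labelled switching-strand clusters were annealed to 100 nM quencher-labelled ATP aptamer, imaged in selection buffer and then after 15 min with 500 uM ATP at 22 °C. Five such cycles were run, with NaOH stripping and re-annealing between them.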
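Further: ATP exposure 15 min at 22 °C before imaging.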

Row | Sequence | switch fluorescence ratio
1 | ATTCGTTGAT | 1.01
2 | ATTCTAGGTT | 1.02
3 | ATTCTCGTTG | 0.994
4 | ATTCTGACTC | 1.1
5 | ATTCTGAGG | 0.976
6 | ATTCTGATAC | 1.17
7 | ATTCTGCGGC | 1.1
8 | ATTCTGCTCA | 0.988
9 | ATTCTGTGTC | 1.07
10 | ATTCTTTTCG | 0.953
11 | ATTGAAATGA | 1.03
12 | ATTGAATGCA | 1.01
13 | ATTGACTACA | 1.04
14 | ATTGAGACAT | 1.02
15 | ATTGAGGTA | 0.971
16 | ATTGATAAGA | 1.04
17 | ATTGATCAGA | 1.02
18 | ATTGATCCTC | 1.02
19 | ATTGATCTAG | 1.01
20 | ATTGATTAT | 1.02
21 | ATTGATTCCG | 1.05
22 | ATTGCAACAC | 2.86
23 | ATTGCAACGG | 1.02
24 | ATTGCAAGGA | 1.04
25 | ATTGCACA | 1.01
26 | ATTGCACCTT | 1.09

Row | Sequence | switch fluorescence ratio
27 | ATTGCGTAAT | 1.03
28 | ATTGCTGATT | 0.949
29 | ATTGCTTAAA | 1.03
30 | ATTGCTTGT | 1.01
31 | ATTGGAATAA | 0.963
32 | ATTGGAATGA | 1.01
33 | ATTGGAGATG | 0.947
34 | ATTGGATATC | 1.01
35 | ATTGGCCGGG | 0.987
36 | ATTGGCCTGG | 1
37 | ATTGGCGCCG | 0.995
38 | ATTGGGCCGG | 1.04
39 | ATTGGGCCTG | 0.999
40 | ATTGGTGGGC | 0.968
41 | ATTGGTGTGA | 0.992
42 | ATTGGTTT | 1.01
43 | ATTGTAAACG | 0.974
44 | ATTGTAAAGT | 0.982
45 | ATTGTATACT | 1.03
46 | ATTGTCGGAT | 1.02
47 | ATTGTCTATG | 0.964
48 | ATTGTCTCCA | 0.977
49 | ATTGTGTGAT | 0.971
50 | ATTGTTCGTA | 1.03
51 | ATTGTTCGTG | 1.01
52 | ATTTAAACGT | 1.06

Row | Sequence | switch fluorescence ratio
53 | ATTTAAGTG | 0.997
54 | ATTTAATGG | 1.02
55 | ATTTACAGA | 1.08
56 | ATTTACATCG | 0.981
57 | ATTTACCACC | 1.26
58 | ATTTACGCGC | 1.01
59 | ATTTACGGAT | 1
60 | ATTTACTGTA | 1.08
61 | ATTTAGTAGG | 0.999
62 | ATTTATCGGC | 0.975
63 | ATTTATGATT | 0.976
64 | ATTTCACAGG | 1.15
65 | ATTTCCCTTT | 0.999
66 | ATTTCGAAAA | 0.969
67 | ATTTCGACT | 0.969
68 | ATTTCGATCT | 0.981
69 | ATTTCGGAGG | 1.02
70 | ATTTCTGGAG | 1.08
71 | ATTTGAAAAA | 1.14
72 | ATTTGACCCC | 1.04
73 | ATTTGAGTGG | 0.98
74 | ATTTGATGAA | 0.978
75 | ATTTGATGCC | 1.06
76 | ATTTGCACTG | 1.03
77 | ATTTGCAGTC | 1
78 | ATTTGCATAT | 1.01

Row | Sequence | switch fluorescence ratio
79 | ATTTGCCAG | 0.991
80 | ATTTGCTATC | 1.07
81 | ATTTGGACCT | 1.37
82 | ATTTGGATAG | 1.02
83 | ATTTGGGAAC | 0.985
84 | ATTTGTAACC | 0.995
85 | ATTTGTGGTA | 0.997
86 | ATTTTAAAGT | 1.03
87 | ATTTTAGCG | 1
88 | ATTTTATCTA | 1.02
89 | ATTTTCCCTT | 1.04
90 | ATTTTCCGTT | 1.01
91 | ATTTTCGAGG | 0.972
92 | ATTTTCTGCG | 0.944
93 | ATTTTGAACG | 1.03
94 | ATTTTGAACT | 0.945
95 | ATTTTGCCGA | 0.989
96 | ATTTTGCTTG | 1.03
97 | ATTTTGGG | 0.91
98 | ATTTTGGTGG | 1.01
99 | ATTTTGTCCC | 1.04
100 | ATTTTTGCAA | 1.11
101 | CAAAAATCAC | 1.01
102 | CAAAAATTTG | 1.02
103 | CAAAACTATT | 1
104 | CAAAAGGTCC | 1.05

Row | Sequence | switch fluorescence ratio
105 | CAAACAATCG | 0.958
106 | CAAACACACG | 1.31
107 | CAAACGCTAG | 1.09
108 | CAAACGGAGG | 0.967
109 | CAAACGTCTA | 1.03
110 | CAAAGCAATT | 3.12
111 | CAAAGCGAGC | 1.02
112 | CAAAGCGCGA | 1.07
113 | CAAAGGGATG | 0.994
114 | CAAAGTAGTA | 0.977
115 | CAAAGTCCGC | 1.28
116 | CAAAGTGAGG | 1
117 | CAAAGTTTCT | 0.994
118 | CAAATCGGA | 1.02
119 | CAAATCTTA | 1.04
120 | CAAATGCCGT | 1.05
121 | CAAATGCTTA | 0.972
122 | CAAATGTGAA | 0.98
123 | CAAATTATAG | 0.969
124 | CAAATTGGTC | 1.05
125 | CAACAACGGG | 1.05
126 | CAACAATGTT | 1.01
127 | CAACACGCCT | 0.999
128 | CAACAGCTAG | 0.995
129 | CAACATATCG | 0.985
130 | CAACATCAGC | 1.01

Row | Sequence | switch fluorescence ratio
131 | CAACCAGGT | 1.63
132 | CAACCCCTCT | 1.05
133 | CAACCCGGC | 1
134 | CAACCTCCGA | 2.28
135 | CAACCTGCGG | 1.04
136 | CAACGAGATT | 1
137 | CAACGTGATA | 1.36
138 | CAACTCGACA | 1.07
139 | CAACTGGAAA | 0.993
140 | CAACTGTAGT | 1.01
141 | CAACTTTGAC | 0.987
142 | CAAGAAAGCG | 0.99
143 | CAAGAAATTG | 1.08
144 | CAAGAGATTT | 0.978
145 | CAAGAGGCTC | 0.98
146 | CAAGATCCAG | 0.991
147 | CAAGATTAGC | 0.978
148 | CAAGCAAAA | 1.14
149 | CAAGCCATAT | 1.05
150 | CAAGCCCTGT | 0.988
151 | CAAGCCTTTT | 1
152 | CAAGCGGG | 1.18
153 | CAAGCTTACA | 1.05
154 | CAAGCTTGGA | 0.944
155 | CAAGGAAGCT | 1.11
156 | CAAGGACGGC | 0.97

Row | Sequence | switch fluorescence ratio
157 | CAAGGAGCTC | 0.987
158 | CAAGGATGTT | 0.961
159 | CAAGGATTG | 0.981
160 | CAAGGCAGTA | 1.04
161 | CAAGGCGCTC | 0.958
162 | CAAGGCGCTG | 0.963
163 | CAAGGCTGAA | 1.03
164 | CAAGGGACAA | 1.02
165 | CAAGGGCGGT | 1.01
166 | CAAGGGGAT | 1.19
167 | CAAGGGTAAC | 1.01
168 | CAAGGTATCA | 1.01
169 | CAAGGTCAAT | 1.04
170 | CAAGGTCTAG | 1
171 | CAAGGTGTGG | 1.06
172 | CAAGTACGTA | 1.12
173 | CAAGTCGAAA | 1
174 | CAAGTGATAC | 3.73
175 | CAAGTTAGCG | 0.976
176 | CAATAAATTG | 0.945
177 | CAATAACGGC | 0.987
178 | CAATAAGGG | 0.983
179 | CAATAATTAA | 0.988
180 | CAATACGGGA | 1.13
181 | CAATACTGTG | 1.15
182 | CAATAGACGC | 1.06

Row | Sequence | switch fluorescence ratio
183 | CAATAGCCTC | 1.03
184 | CAATAGTTTG | 0.98
185 | CAATATGTAA | 0.978
186 | CAATCCTAAA | 0.959
187 | CAATCGCGAT | 1.01
188 | CAATCTCGGA | 0.991
189 | CAATCTGTAC | 1.09
190 | CAATCTTATG | 1.04
191 | CAATCTTTGG | 0.992
192 | CAATGAATTA | 1.03
193 | CAATGAGAGC | 0.974
194 | CAATGGAATA | 1.04
195 | CAATGGATGG | 0.975
196 | CAATGGGGAC | 0.996
197 | CAATGGTACA | 0.991
198 | CAATGTAAG | 1.02
199 | CAATGTAGCT | 0.982
200 | CAATGTGAAT | 0.943
201 | CAATTAAGCG | 0.984
